From EP0312132A2 (priority 1987, dated 1989) come the findings set out here.

For the test, the system named is Hepatitis infect.Canis. More on the design: species or system Dogs. As to conditions: dog, in vivo.

Take `Nc1ccc(N=Nc2ccccc2)c(N)n1`: the “% recovered” value was 100% and the cured worked out at 17.
